# This is one part of the list.
# B1: Gal 9 (Homo sapiens), O00182 (protein)
# chain: MAFSGSQAPYLSPAVPFSGTIQGGLQDGLQITVNGTVLSSSGTRFAVNFQTGFSGNDIAFHFNPRFEDGGYVVCNTRQNGSWGPEERKTHMPFQKGMPFDLCFLVQSSDFKVMVNGILFVQYFHRVPFHRVDTISVNGSVQLSYISFQNPRTVPVQPAFSTVPFSQPVCFPPRPRGRRQKPPGVWPANPAPITQTVIHTVQSAPGQMFSTPAIPPMMYPHPAYPMPFITTILGGLYPSKSILLSGTVLPSAQRFHINLCSGNHIAFHLNPRFDENAVVRNTQIDNSWGSEERSLPRKMPFVRGQSFSVWILCEAHCLKVAVDGQHLFEYYHRLRNLPTINRLEVGGDIQLTHVQT
# What was measured:
# Assay in all cases: glycan array binding signal (z-score within array); higher = stronger binding
# Settings in all cases: glycan notation: IUPAC condensed, linker removed
# [1] = molecular target: Fuc(a1-4)GlcNAc
# Summary of the method: (§1)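 The Consortium for Functional Glycomics database supplied 3228 glycan arrays, of which those lacking an available protein sequence were dropped. The binding signal, a within-array Z-score, was averaged across arrays of the same protein sequence and across linkers. Negative scores can be read as non-binding.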
# [2] = molecular target: Fuc(b1-3)GlcNAc
# Summary of the method: as §1
# [3] = molecular target: Gal(a1-2)Gal
# Summary of the method: as §1
# [4] = molecular target: Gal(a1-3)Gal
# Summary of the method: as §1
# [5] = molecular target: Gal(a1-3)Gal(b1-3)GlcNAc
# Summary of the method: as §1
# [6] = molecular target: Gal(a1-3)Gal(b1-3)GlcNAc(b1-2)Man
# Summary of the method: as §1
# [7] = molecular target: Gal(a1-3)Gal(b1-3)GlcNAc(b1-2)Man(a1-3)[Gal(a1-3)Gal(b1-3)GlcNAc(b1-2)Man(a1-6)]Man(b1-4)GlcNAc(b1-4)GlcNAc
# Summary of the method: as §1
# [8] = molecular target: Gal(a1-3)Gal(b1-3)GlcNAc(b1-3)GalNAc
# Summary of the method: as §1
# [9] = molecular target: Gal(a1-3)Gal(b1-3)GlcNAc(b1-6)GalNAc
# Summary of the method: as §1
# [10] = molecular target: Gal(a1-3)Gal(b1-3)[Fuc(a1-4)]GlcNAc(b1-2)Man(a1-3)[Gal(a1-3)Gal(b1-3)[Fuc(a1-4)]GlcNAc(b1-2)Man(a1-6)]Man(b1-4)GlcNAc(b1-4)GlcNAc
# Summary of the method: as §1
# [11] = molecular target: Gal(a1-3)Gal(b1-4)Glc
# Summary of the method: as §1
# [12] = molecular target: Gal(a1-3)Gal(b1-4)GlcNAc
# Summary of the method: as §1
# [13] = molecular target: Gal(a1-3)Gal(b1-4)GlcNAc(b1-2)Man
# Summary of the method: as §1
# [14] = molecular target: Gal(a1-3)Gal(b1-4)GlcNAc(b1-2)Man(a1-3)[Gal(a1-3)Gal(b1-4)GlcNAc(b1-2)Man(a1-6)]Man(b1-4)GlcNAc(b1-4)GlcNAc
# Summary of the method: as §1
# [15] = molecular target: Gal(a1-3)Gal(b1-4)GlcNAc(b1-3)GalNAc
# Summary of the method: as §1
# [16] = molecular target: Gal(a1-3)Gal(b1-4)GlcNAc(b1-6)GalNAc
# Summary of the method: as §1
# [17] = molecular target: Gal(a1-3)Gal(b1-4)[Fuc(a1-3)]GlcNAc
# Summary of the method: as §1
# [18] = molecular target: Gal(a1-3)Gal(b1-4)[Fuc(a1-3)]GlcNAc(b1-2)Man(a1-3)[Gal(a1-3)Gal(b1-4)[Fuc(a1-3)]GlcNAc(b1-2)Man(a1-6)]Man(b1-4)GlcNAc(b1-4)GlcNAc
# Summary of the method: as §1
# [19] = molecular target: Gal(a1-3)GalNAc
# Summary of the method: as §1
# [20] = molecular target: Gal(a1-3)[Gal(a1-4)]Gal(b1-4)GlcNAc
# Summary of the method: as §1
# [21] = molecular target: Gal(a1-4)Gal(b1-3)GlcNAc(b1-2)Man(a1-3)[Gal(a1-4)Gal(b1-3)GlcNAc(b1-2)Man(a1-6)]Man(b1-4)GlcNAc(b1-4)GlcNAc
# Summary of the method: as §1
# [22] = molecular target: Gal(a1-4)Gal(b1-4)Glc
# Summary of the method: as §1
# [23] = molecular target: Gal(a1-4)Gal(b1-4)GlcNAc
# Summary of the method: as §1
# [24] = molecular target: Gal(a1-4)Gal(b1-4)GlcNAc(b1-2)Man(a1-3)[Gal(a1-4)Gal(b1-4)GlcNAc(b1-2)Man(a1-6)]Man(b1-4)GlcNAc(b1-4)GlcNAc
# Summary of the method: as §1
# [25] = molecular target: Gal(a1-4)Gal(b1-4)GlcNAc(b1-3)Gal(b1-4)Glc
# Summary of the method: as §1
# [26] = molecular target: Gal(a1-4)GlcNAc
# Summary of the method: as §1
# [27] = molecular target: Gal(a1-6)Glc
# Summary of the method: as §1
# [28] = molecular target: Gal(b1-2)Gal
# Summary of the method: as §1
# [29] = molecular target: Gal(b1-3)Gal
# Summary of the method: as §1
# [30] = molecular target: Gal(b1-3)Gal(b1-4)GlcNAc
# Summary of the method: as §1
# [31] = molecular target: Gal(b1-3)Gal(b1-4)GlcNAc(b1-2)Man(a1-3)[Gal(b1-3)Gal(b1-4)GlcNAc(b1-2)Man(a1-6)]Man(b1-4)GlcNAc(b1-4)GlcNAc
# Summary of the method: as §1
# [32] = molecular target: Gal(b1-3)GalNAc
# Summary of the method: as §1
# [33] = molecular target: Gal(b1-3)GalNAc(a1-3)[Fuc(a1-2)]Gal(b1-4)Glc
# Summary of the method: as §1
# [34] = molecular target: Gal(b1-3)GalNAc(a1-3)[Fuc(a1-2)]Gal(b1-4)GlcNAc
# Summary of the method: as §1
# [35] = molecular target: Gal(b1-3)GalNAc(b1-3)Gal
# Summary of the method: as §1
# [36] = molecular target: Gal(b1-3)GalNAc(b1-3)Gal(a1-4)Gal(b1-4)Glc
# Summary of the method: as §1
# [37] = molecular target: Gal(b1-3)GalNAc(b1-4)Gal(b1-4)Glc
# Summary of the method: as §1
# [38] = molecular target: Gal(b1-3)GalNAc(b1-4)[Neu5Ac(a2-3)]Gal(b1-4)Glc
# Summary of the method: as §1
binder,measurement,setting,value
B1,glycan array binding signal (z-score),[1],-0.307
same,glycan array binding signal (z-score),[2],-0.313
same,glycan array binding signal (z-score),[3],-0.313
same,glycan array binding signal (z-score),[4],-0.306
same,glycan array binding signal (z-score),[5],-0.292
same,glycan array binding signal (z-score),[6],-0.279
same,glycan array binding signal (z-score),[7],-0.28
same,glycan array binding signal (z-score),[8],-0.297
same,glycan array binding signal (z-score),[9],-0.279
same,glycan array binding signal (z-score),[10],-0.26
same,glycan array binding signal (z-score),[11],-0.272
same,glycan array binding signal (z-score),[12],0.085
same,glycan array binding signal (z-score),[13],-0.255
same,glycan array binding signal (z-score),[14],-0.175
same,glycan array binding signal (z-score),[15],0.023
same,glycan array binding signal (z-score),[16],-0.293
same,glycan array binding signal (z-score),[17],-0.322
same,glycan array binding signal (z-score),[18],-0.304
same,glycan array binding signal (z-score),[19],-0.304
same,glycan array binding signal (z-score),[20],-0.31
same,glycan array binding signal (z-score),[21],-0.285
same,glycan array binding signal (z-score),[22],-0.287
same,glycan array binding signal (z-score),[23],-0.299
same,glycan array binding signal (z-score),[24],-0.256
same,glycan array binding signal (z-score),[25],0.18
same,glycan array binding signal (z-score),[26],-0.31
same,glycan array binding signal (z-score),[27],-0.316
same,glycan array binding signal (z-score),[28],-0.335
same,glycan array binding signal (z-score),[29],-0.321
same,glycan array binding signal (z-score),[30],1.07
same,glycan array binding signal (z-score),[31],6
same,glycan array binding signal (z-score),[32],-0.317
same,glycan array binding signal (z-score),[33],0.067
same,glycan array binding signal (z-score),[34],0.628
same,glycan array binding signal (z-score),[35],-0.292
same,glycan array binding signal (z-score),[36],-0.318
same,glycan array binding signal (z-score),[37],-0.284
same,glycan array binding signal (z-score),[38],-0.319

# Source: the supplement of paper PMC8728848
